This passage reports Km and Vmax results from US12173330B2, “Method for producing hydroxy-L-pipecolic acid” (API CORPORATION, priority 2015, dated 2024).

Substrate in the data set: O=C(O)[C@@H]1CCCCN1
The data set can be described thus: purified protein, by the assay type. Conditions: other: substrate: L-pipecolic acid, 20 mmol/L 2-oxoglutaric acid, 30° C.

B1: Penicillium chrysogenum Wisconsin 54-1255 L-pipecolic acid trans-4-hydroxylase PcPH, SEQ ID NO: 14 (Penicillium rubens Wisconsin 54-1255) (protein)
chain: MSQALDLSLLKGSPEERDEVSAALLDTLKTRGVAKLKNHGLPEDLIAEMFDYTRRFFSLSLEDKMTAKHPPEANPNRGYSYVGQESVSSISGYEKGLPQGKTIRDIKETLDMGSPHDSLVDNIWVAEEKLPGFRKFMEDFYESCFKVELEILDALAQALEISAPDLRLLHNKAENEFRLLHYPAVPASALEDGTATRIAEHTDFGTITMLFQDSTGGLQVEDQTNLGTFHDVVSGGKSEIILNIGDSLQRLTNDTFMAACHRVTYPPTVKVGSDVVIPERYSVAYFAKPNRIASLFPLKKFITPATPCKYEDITAWDYNNLRIAKLFS
A word on the Km: it is the concentration of substrate that gives half-maximal velocity. For B1, the Km was determined as 3.67 mM and the Vmax is on record as 16.16 U/mg-protein.
